This is one part of the list.
Key:
Assay in all cases: glycan array binding signal (z-score within array); higher = stronger binding
Conditions in all cases: glycan notation: IUPAC condensed, linker removed
[1] = target: Neu5Ac(a2-6)Gal(b1-4)GlcNAc(b1-3)Gal(b1-4)GlcNAc(b1-3)GalNAc
Procedure, shortened: (§1)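 Glycan array binding is given as a within-array Z-score, which can be read as non-binding when negative. The arrays, 3228 of them, came from the Consortium for Functional Glycomics database and were retained only where the protein sequence was available. Z-scores were averaged across arrays of the same protein sequence at different concentrations or buffers and across linkers.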

[2] = target: Neu5Ac(a2-6)Gal(b1-4)GlcNAc(b1-3)Gal(b1-4)GlcNAc(b1-3)[Neu5Ac(a2-6)Gal(b1-4)GlcNAc(b1-3)Gal(b1-4)GlcNAc(b1-6)]GalNAc
Procedure, shortened: as §1

[3] = target: Neu5Ac(a2-6)Gal(b1-4)GlcNAc(b1-3)Gal(b1-4)GlcNAc(b1-6)[Gal(b1-3)]GalNAc
Procedure, shortened: as §1

[4] = target: Neu5Ac(a2-6)Gal(b1-4)GlcNAc(b1-3)Gal(b1-4)[Fuc(a1-3)]GlcNAc(b1-3)Gal(b1-4)[Fuc(a1-3)]GlcNAc
Procedure, shortened: as §1

[5] = target: Neu5Ac(a2-6)Gal(b1-4)GlcNAc(b1-3)GalNAc
Procedure, shortened: as §1

[6] = target: Neu5Ac(a2-6)Gal(b1-4)GlcNAc(b1-3)[Neu5Ac(a2-6)Gal(b1-4)GlcNAc(b1-6)]GalNAc
Procedure, shortened: as §1

[7] = target: Neu5Ac(a2-6)Gal(b1-4)GlcNAc(b1-6)GalNAc
Procedure, shortened: as §1

[8] = target: Neu5Ac(a2-6)Gal(b1-4)GlcNAc(b1-6)[Gal(b1-3)GlcNAc(b1-3)]Gal(b1-4)Glc
Procedure, shortened: as §1

[9] = target: Neu5Ac(a2-6)Gal(b1-4)GlcNAc(b1-6)[Gal(b1-3)]GalNAc
Procedure, shortened: as §1

[10] = target: Neu5Ac(a2-6)Gal(b1-4)GlcNAc6S
Procedure, shortened: as §1

Neu5Ac(a2-6)GalNAc = target: Neu5Ac(a2-6)GalNAc
Procedure, shortened: as §1

[11] = target: Neu5Ac(a2-6)GalNAc(b1-4)GlcNAc
Procedure, shortened: as §1

[12] = target: Neu5Ac(a2-6)GalNAc(b1-4)GlcNAc6S
Procedure, shortened: as §1

[13] = target: Neu5Ac(a2-6)GlcNAc(b1-4)GlcNAc
Procedure, shortened: as §1

[14] = target: Neu5Ac(a2-6)GlcNAc(b1-4)GlcNAc(b1-4)GlcNAc
Procedure, shortened: as §1

Neu5Ac(a2-8)Neu5Ac = target: Neu5Ac(a2-8)Neu5Ac
Procedure, shortened: as §1

[15] = target: Neu5Ac(a2-8)Neu5Ac(a2-3)Gal(b1-3)GalNAc(b1-4)[Neu5Ac(a2-3)]Gal(b1-4)Glc
Procedure, shortened: as §1

[16] = target: Neu5Ac(a2-8)Neu5Ac(a2-3)Gal(b1-3)GalNAc(b1-4)[Neu5Ac(a2-8)Neu5Ac(a2-3)]Gal(b1-4)Glc
Procedure, shortened: as §1

[17] = target: Neu5Ac(a2-8)Neu5Ac(a2-3)Gal(b1-4)Glc
Procedure, shortened: as §1

[18] = target: Neu5Ac(a2-8)Neu5Ac(a2-3)Gal(b1-4)GlcNAc
Procedure, shortened: as §1

[19] = target: Neu5Ac(a2-8)Neu5Ac(a2-3)[Gal(b1-3)GalNAc(b1-4)]Gal(b1-4)Glc
Procedure, shortened: as §1

[20] = target: Neu5Ac(a2-8)Neu5Ac(a2-3)[GalNAc(b1-4)]Gal(b1-4)Glc
Procedure, shortened: as §1

[21] = target: Neu5Ac(a2-8)Neu5Ac(a2-8)Neu5Ac
Procedure, shortened: as §1

[22] = target: Neu5Ac(a2-8)Neu5Ac(a2-8)Neu5Ac(a2-3)Gal(b1-4)Glc
Procedure, shortened: as §1

[23] = target: Neu5Ac(a2-8)Neu5Ac(a2-8)Neu5Ac(a2-3)[Gal(b1-3)GalNAc(b1-4)]Gal(b1-4)Glc
Procedure, shortened: as §1

[24] = target: Neu5Ac(a2-8)Neu5Ac(a2-8)Neu5Ac(a2-3)[GalNAc(b1-4)]Gal(b1-4)Glc
Procedure, shortened: as §1

[25] = target: Neu5Ac(a2-8)Neu5Ac(a2-8)Neu5Ac(a2-8)Neu5Ac(a2-3)[GalNAc(b1-4)]Gal(b1-4)Glc
Procedure, shortened: as §1

[26] = target: Neu5Ac(a2-8)Neu5Gc(a2-3)Gal(b1-4)GlcNAc
Procedure, shortened: as §1

[27] = target: Neu5Ac(b2-6)Gal(b1-4)GlcNAc
Procedure, shortened: as §1

Neu5Ac(b2-6)GalNAc = target: Neu5Ac(b2-6)GalNAc
Procedure, shortened: as §1

[28] = target: Neu5Ac9Ac(a2-3)Gal(b1-3)GlcNAc
Procedure, shortened: as §1

[29] = target: Neu5Ac9Ac(a2-3)Gal(b1-4)GlcNAc
Procedure, shortened: as §1

[30] = target: Neu5Ac9Ac(a2-6)Gal(b1-4)GlcNAc
Procedure, shortened: as §1

[31] = target: Neu5Gc(a2-3)Gal(b1-3)GlcNAc
Procedure, shortened: as §1

[32] = target: Neu5Gc(a2-3)Gal(b1-3)[Fuc(a1-4)]GlcNAc
Procedure, shortened: as §1

Neu5Gc(a2-3)Gal(b1-4)Glc = target: Neu5Gc(a2-3)Gal(b1-4)Glc
Procedure, shortened: as §1

[33] = target: Neu5Gc(a2-3)Gal(b1-4)GlcNAc
Procedure, shortened: as §1

[34] = target: Neu5Gc(a2-3)Gal(b1-4)GlcNAc(b1-3)Gal(b1-4)GlcNAc(b1-2)Man(a1-3)[Neu5Gc(a2-3)Gal(b1-4)GlcNAc(b1-3)Gal(b1-4)GlcNAc(b1-2)Man(a1-6)]Man(b1-4)GlcNAc(b1-4)GlcNAc
Procedure, shortened: as §1

[35] = target: Neu5Gc(a2-3)Gal(b1-4)[Fuc(a1-3)]GlcNAc
Procedure, shortened: as §1

[36] = target: Neu5Gc(a2-6)Gal(b1-4)GlcNAc
Procedure, shortened: as §1

Neu5Gc(a2-6)GalNAc = target: Neu5Gc(a2-6)GalNAc
Procedure, shortened: as §1

[37] = target: Neu5Gc(a2-8)Neu5Ac(a2-3)Gal(b1-4)GlcNAc
Procedure, shortened: as §1

[38] = target: Neu5Gc(a2-8)Neu5Gc(a2-3)Gal(b1-4)GlcNAc
Procedure, shortened: as §1

[39] = target: Neu5Gc(a2-8)Neu5Gc(a2-3)Gal(b1-4)GlcNAc(b1-3)Gal(b1-4)GlcNAc
Procedure, shortened: as §1

[40] = target: Neu5Gc(a2-8)Neu5Gc(a2-6)Gal(b1-4)GlcNAc
Procedure, shortened: as §1

B1: Pwp5 ND (Candida glabrata) (protein)
chain: MGSSHHHHHHSSGLVPRGSHMASANPVPLTNVCYFPEEYPRQAGFRAITAGLASTILQGSVDELLNYSGLSSLTTQQTTTTTPNFQLPTLPLPTNVYGLTVVPLYLLVQLQGYFVPPVSGQYTFSLENTNDAAIIFFGNPSAFPCGDLSAWPQASADDITVTDGTFPSRTLFLKAGVAYPMRISYYNSLGSGNLAVSFTDPGGTKRTNWNGYIWRYNSCSTCTYT
[1]
  glycan array binding signal (z-score): -0.259
[2]
  glycan array binding signal (z-score): -0.007
[3]
  glycan array binding signal (z-score): -0.329
[4]
  glycan array binding signal (z-score): 0.095
[5]
  glycan array binding signal (z-score): -0.267
[6]
  glycan array binding signal (z-score): 0.074
[7]
  glycan array binding signal (z-score): 3.96
[8]
  glycan array binding signal (z-score): 0.494
[9]
  glycan array binding signal (z-score): 1.08
[10]
  glycan array binding signal (z-score): -0.333
Neu5Ac(a2-6)GalNAc
  glycan array binding signal (z-score): -0.579
[11]
  glycan array binding signal (z-score): -0.67
[12]
  glycan array binding signal (z-score): 0.083
[13]
  glycan array binding signal (z-score): 0.217
[14]
  glycan array binding signal (z-score): -0.189
Neu5Ac(a2-8)Neu5Ac
  glycan array binding signal (z-score): 0.246
[15]
  glycan array binding signal (z-score): 1.99
[16]
  glycan array binding signal (z-score): -0.167
[17]
  glycan array binding signal (z-score): -0.47
[18]
  glycan array binding signal (z-score): -0.678
[19]
  glycan array binding signal (z-score): -0.561
[20]
  glycan array binding signal (z-score): 0.315
[21]
  glycan array binding signal (z-score): 0.261
[22]
  glycan array binding signal (z-score): -0.538
[23]
  glycan array binding signal (z-score): 1.11
[24]
  glycan array binding signal (z-score): -0.325
[25]
  glycan array binding signal (z-score): -0.314
[26]
  glycan array binding signal (z-score): -0.468
[27]
  glycan array binding signal (z-score): -0.054
Neu5Ac(b2-6)GalNAc
  glycan array binding signal (z-score): -0.478
[28]
  glycan array binding signal (z-score): 1.23
[29]
  glycan array binding signal (z-score): -0.582
[30]
  glycan array binding signal (z-score): -0.451
[31]
  glycan array binding signal (z-score): -0.163
[32]
  glycan array binding signal (z-score): -0.368
Neu5Gc(a2-3)Gal(b1-4)Glc
  glycan array binding signal (z-score): -0.348
[33]
  glycan array binding signal (z-score): 0.098
[34]
  glycan array binding signal (z-score): -0.542
[35]
  glycan array binding signal (z-score): -0.423
[36]
  glycan array binding signal (z-score): -0.248
Neu5Gc(a2-6)GalNAc
  glycan array binding signal (z-score): 0.028
[37]
  glycan array binding signal (z-score): -0.52
[38]
  glycan array binding signal (z-score): -0.127
[39]
  glycan array binding signal (z-score): -0.428
[40]
  glycan array binding signal (z-score): -0.294

— the supplement of paper PMC8728848
